Data published in the supplement of paper PMC12217912.
This is one part of the list. Sequences were assembled here from the parent chain. Values near 0.05 are background.

B1: TEV protease; numbered along this chain (parent)
chain: MGESLFKGPRDYNPISSSICHLTNESDGHTTSLYGIGFGPFIITNKHLFRRNNGTLVVQSLHGVFKVKDTTTLQQHLVDGRDMIIIRMPKDFPPFPQKLKFREPQREERICLVTTNFQTKSMSSMVSDTSCTFPSGDGIFWKHWIQTKDGQCGSPLVSTRDGFIVGIHSASNFTNTNNYFTSVPKNFMELLTNQEAQQWVSGWRLNADSVLWGGHKVFMVKPEEPFQPVKEATQL

Variants of: B1
Assay: raw area under fraction-flipped curve 0-4 h after induction (AUC4h, not background-subtracted), DNA-recorder readout of cleavage of the substrate (dimensionless); higher = more cleavage of the substrate by the protease variant
Conditions: temperature: 34 °C; time window: 0-4 h after rhamnose induction
Protocol: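 In vivo DNA recorder in E. coli TOP10(DE3) ΔrhaA at 34 °C. Each TEVp single-site mutant (parent TEVp 0) is paired with a single-site variant of the 7-mer TEVs (canonical ENLYFQ|S). The substrate sits between flexible linkers in a Bxb1-sfGFP-TEVs-SsrA fusion, so cleavage stabilises Bxb1 and speeds flipping of a recombination array, read by NGS. The value is the raw area under the fraction-flipped curve over 0-4 h after rhamnose induction (AUC4h), with ≥20 reads per time point. It is not background-subtracted; inactive controls average about 0.047.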
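Also: Bxb1 expression induced with 0.2% (w/v) L-rhamnose at OD600 near 0.5, cultures sampled hourly, flipped fraction per protease–substrate barcode pair counted by paired-end Illumina sequencing.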

MGESLFKGPRDYNPISSSICHLTNESDGHTTSLYGIGFGPFIITNKHLFRRNNGTLVVQSLHGVFKVKDTTTLQQHLVDGRDMIIIRIPKDFPPFPQKLKFREPQREERICLVTTNFQTKSMSSMVSDTSCTFPSGDGIFWKHWIQTKDGQCGSPLVSTRDGFIVGIHSASNFTNTNNYFTSVPKNFMELLTNQEAQQWVSGWRLNADSVLWGGHKVFMVKPEEPFQPVKEATQL [M88I]
area with substrate ENLCFQS: 0.0695 | area with substrate ENLDFQS: 0.114 | area with substrate ENLFFQS: 0.093 | area with substrate ENLGFQS: 0.0928 | area with substrate ENLLFQS: 0.0738 | area with substrate ENLNFQS: 0.0672 | area with substrate ENLPFQS: 0.0587 | area with substrate ENLRFQS: 0.0761 | area with substrate ENLSFQS: 0.0512

MGESLFKGPRDYNPISSSICHLTNESDGHTTSLYGIGFGPFIITNKHLFRRNNGTLVVQSLHGVFKVKDTTTLQQHLVDGRDMIIIRMPKDFPPFPQKLKFREPQREERICLVTTNFQTKSMSSMVSDTSCTYPSGDGIFWKHWIQTKDGQCGSPLVSTRDGFIVGIHSASNFTNTNNYFTSVPKNFMELLTNQEAQQWVSGWRLNADSVLWGGHKVFMVKPEEPFQPVKEATQL [F133Y]
area with substrate ENLCFQS: 0.0888 | area with substrate ENLDFQS: 0.0578 | area with substrate ENLFFQS: 0.0999 | area with substrate ENLGFQS: 0.0538 | area with substrate ENLHFQS: 0.0767 | area with substrate ENLKFQS: 0.0841 | area with substrate ENLMFQS: 0.0645 | area with substrate ENLNFQS: 0.0377 | area with substrate ENLPFQS: 0.0612 | area with substrate ENLRFQS: 0.0782 | area with substrate ENLSFQS: 0.0489

MGESLFKGPRDYNPISSSICHLTNESDGHTTSLYGIGFGPFIITNKHLFRRNNGTLVVQSLHGVFKVKDTTTLQQHLVDGRDMIIIRMPKDFPPFPQKLKFREPQREERICLVTTNFQTKDMSSMVSDTSCTFPSGDGIFWKHWIQTKDGQCGSPLVSTRDGFIVGIHSASNFTNTNNYFTSVPKNFMELLTNQEAQQWVSGWRLNADSVLWGGHKVFMVKPEEPFQPVKEATQL [S121D]
area with substrate ENLCFQS: 0.0685 | area with substrate ENLDFQS: 0.0546 | area with substrate ENLEFQS: 0.0751 | area with substrate ENLFFQS: 0.0758 | area with substrate ENLGFQS: 0.0661 | area with substrate ENLHFQS: 0.0733 | area with substrate ENLIFQS: 0.0856 | area with substrate ENLKFQS: 0.0709 | area with substrate ENLLFQS: 0.0588 | area with substrate ENLNFQS: 0.0606 | area with substrate ENLPFQS: 0.0514 | area with substrate ENLQFQS: 0.0525 | area with substrate ENLRFQS: 0.0708 | area with substrate ENLSFQS: 0.0737

MGESLFKGPRDYNPISSSICHLTNESDGHTTSLYGIGFGPFIITNKHLFRRNNGTLVVQSLHGVFKVKDTTTLQQHLVDGRDMIIIRMPKDFPPFPQKLKFREPQREERICLVTTNFQTKVMSSMVSDTSCTFPSGDGIFWKHWIQTKDGQCGSPLVSTRDGFIVGIHSASNFTNTNNYFTSVPKNFMELLTNQEAQQWVSGWRLNADSVLWGGHKVFMVKPEEPFQPVKEATQL [S121V]
area with substrate ENLCFQS: 0.0749 | area with substrate ENLDFQS: 0.0753 | area with substrate ENLEFQS: 0.106 | area with substrate ENLFFQS: 0.0782 | area with substrate ENLHFQS: 0.0685 | area with substrate ENLIFQS: 0.0943 | area with substrate ENLKFQS: 0.0729 | area with substrate ENLLFQS: 0.0647 | area with substrate ENLPFQS: 0.0581 | area with substrate ENLVFQS: 0.0641 | area with substrate ENLWFQS: 0.0632

MGESLFKGPRDYNPISSSICHLTNESDGHTTSLYGIGFGPFIITNKHLFRRNNGTLVVQSLHGVFKVKDTTTLQQHLVDGRDMIIIRMPKDFPPFPQKLKFREPQREERICLVTTNFQTKLMSSMVSDTSCTFPSGDGIFWKHWIQTKDGQCGSPLVSTRDGFIVGIHSASNFTNTNNYFTSVPKNFMELLTNQEAQQWVSGWRLNADSVLWGGHKVFMVKPEEPFQPVKEATQL [S121L]
area with substrate ENLCFQS: 0.0562 | area with substrate ENLDFQS: 0.0614 | area with substrate ENLEFQS: 0.0706 | area with substrate ENLFFQS: 0.107 | area with substrate ENLHFQS: 0.0522 | area with substrate ENLIFQS: 0.0934 | area with substrate ENLKFQS: 0.0666 | area with substrate ENLLFQS: 0.0766 | area with substrate ENLSFQS: 0.0614 | area with substrate ENLTFQS: 0.0781 | area with substrate ENLVFQS: 0.0822 | area with substrate ENLWFQS: 0.0635

MGESLFKGPRDYNPISSSICHLTNESDGHTTSLYGIGFGPFIITNKHLFRRNNGTLVVQSLHGVFKVKDTTTLQQHLVDGRDMIIIRMPKDFPPFPQKLKFREPQREERICLVTTNFQTKSMSSMVSDTSCRFPSGDGIFWKHWIQTKDGQCGSPLVSTRDGFIVGIHSASNFTNTNNYFTSVPKNFMELLTNQEAQQWVSGWRLNADSVLWGGHKVFMVKPEEPFQPVKEATQL [T132R]
area with substrate ENLCFQS: 0.0598 | area with substrate ENLDFQS: 0.0646 | area with substrate ENLFFQS: 0.0631 | area with substrate ENLHFQS: 0.057 | area with substrate ENLIFQS: 0.0749 | area with substrate ENLLFQS: 0.0632 | area with substrate ENLNFQS: 0.0625 | area with substrate ENLPFQS: 0.0494 | area with substrate ENLRFQS: 0.0538 | area with substrate ENLSFQS: 0.0805

MGESLFKGPRDYNPISSSICHLTNESDGHTTSLYGIGFGPFIITNKHLFRRNNGTLVVQSLHGVFKVKDTTTLQQHLVDGRDMIIIRMPKDFPPGPQKLKFREPQREERICLVTTNFQTKSMSSMVSDTSCTFPSGDGIFWKHWIQTKDGQCGSPLVSTRDGFIVGIHSASNFTNTNNYFTSVPKNFMELLTNQEAQQWVSGWRLNADSVLWGGHKVFMVKPEEPFQPVKEATQL [F95G]
area with substrate ENLCFQS: 0.0585 | area with substrate ENLDFQS: 0.06 | area with substrate ENLEFQS: 0.0497 | area with substrate ENLFFQS: 0.0633 | area with substrate ENLGFQS: 0.0522 | area with substrate ENLMFQS: 0.0579 | area with substrate ENLPFQS: 0.0714 | area with substrate ENLSFQS: 0.052 | area with substrate ENLTFQS: 0.0655

MGESLFKGPRDYNPISSSICHLTNESDGHTTSLYGIGFGPFIITNKHLFRRNNGTLVVQSLHGVFKVKDTTTLQQHLVDGRDMIIIRMPKDFPPFPSKLKFREPQREERICLVTTNFQTKSMSSMVSDTSCTFPSGDGIFWKHWIQTKDGQCGSPLVSTRDGFIVGIHSASNFTNTNNYFTSVPKNFMELLTNQEAQQWVSGWRLNADSVLWGGHKVFMVKPEEPFQPVKEATQL [Q97S]
area with substrate ENLCFQS: 0.0583 | area with substrate ENLFFQS: 0.0573 | area with substrate ENLGFQS: 0.0872 | area with substrate ENLHFQS: 0.0654 | area with substrate ENLKFQS: 0.0766 | area with substrate ENLNFQS: 0.0707 | area with substrate ENLRFQS: 0.0718 | area with substrate ENLVFQS: 0.0827

MGESLFKGPRDYNPISSSICHLTNESDGHTTSLYGIGFGPFIITNKHLFRRNNGTLVVQSLHGVFKVKDTTTLQQHLVDGRDMIIIRMPKDFPPFPIKLKFREPQREERICLVTTNFQTKSMSSMVSDTSCTFPSGDGIFWKHWIQTKDGQCGSPLVSTRDGFIVGIHSASNFTNTNNYFTSVPKNFMELLTNQEAQQWVSGWRLNADSVLWGGHKVFMVKPEEPFQPVKEATQL [Q97I]
area with substrate ENLCFQS: 0.0809 | area with substrate ENLDFQS: 0.0705 | area with substrate ENLFFQS: 0.0437 | area with substrate ENLGFQS: 0.0693 | area with substrate ENLNFQS: 0.0696 | area with substrate ENLRFQS: 0.0794 | area with substrate ENLWFQS: 0.0666

MGESLFKGPRDYNPISSSICHLTNESDGHTTSLYGIGFGPFIITNKHLFRRNNGTLVVQSLHGVFKVKDTTTLQQHLVDGRDMIIIRMPKDFPPFPQKLKFQEPQREERICLVTTNFQTKSMSSMVSDTSCTFPSGDGIFWKHWIQTKDGQCGSPLVSTRDGFIVGIHSASNFTNTNNYFTSVPKNFMELLTNQEAQQWVSGWRLNADSVLWGGHKVFMVKPEEPFQPVKEATQL [R102Q]
area with substrate ENLCFQS: 0.0697 | area with substrate ENLDFQS: 0.0524 | area with substrate ENLEFQS: 0.0959 | area with substrate ENLFFQS: 0.0543 | area with substrate ENLGFQS: 0.0547 | area with substrate ENLHFQS: 0.0622 | area with substrate ENLLFQS: 0.0489 | area with substrate ENLNFQS: 0.0464 | area with substrate ENLPFQS: 0.0494 | area with substrate ENLQFQS: 0.0516 | area with substrate ENLRFQS: 0.0433 | area with substrate ENLSFQS: 0.0597 | area with substrate ENLWFQS: 0.0447
